Reference: PubChem BioAssay AID1745845 (National Center for Advancing Translational Sciences (NCATS), 2022)
In all, about 360,000 compounds went through this assay and about 2,600 (0.72%) were called active. Inconclusive results, whose numbers are uncertain, are shown with a selection of clear calls. The call rests on the fitted dose curve; in most records, active means well fitted inhibition curve with a large enough effect; inconclusive means small, poorly fitted or top-dose-only effect; inactive means no such curve, though single readings can be large or run the other way. Potencies of inconclusive entries are doubtful fits and often do not repeat.

Test: Primary qHTS for Inhibitors of ATXN expression; further: nearly all actives have a fitted effect of over 55% in size
Conditions: HEK-293 ATXN2-luciferase reporter, luminescence, 24 h; activity change, negative = inhibition: at 57 µM (top of the series)
Outline: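 ATXN2-luciferase reporter cells (luciferase flanked by upstream and downstream ATXN2 gene portions) were treated 24 h at 37 °C with compounds at up to 57 uM. SteadyGlo luminescence gave expression; GF-AFC fluorescence gave viability.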
On the % scale 0 is the no-effect control and ±100 the full control effect; potency means the concentration at half of the fitted maximal effect; tags describe the fitted curve by direction and shape.

| SMILES | activity change, negative = inhibition | Potency |
| --- | --- | --- |
| CC[C@]12c3[nH]c4ccccc4c3CCN1C(=O)C(CC(=O)NCc1cccc(C(F)(F)F)c1)C[C@@H]2C(=O)N1CCN(C(=O)c2ccco2)CC1 (stereo partly drawn) | inactive: -30.9% |  |
| COc1cccc(-c2cnc3c(NC(C)=O)cc(-c4ccc(S(C)(=O)=O)cc4)cn23)c1 |  | inconclusive: 25.1 µM [inhibitor, single point] |
| S=C(Nc1cccc2ccccc12)Nc1cccc2ccccc12 | inactive: 0.0988% |  |
| O=S(=O)(c1cccs1)N1CCN(CCOc2ccc(Cl)cc2)CC1 |  | inconclusive: 11.2 µM [inhibitor, partial curve, poor fit] |
| COc1cc(N)ccc1Nc1c2ccccc2nc2ccccc12 |  | inconclusive: 14.1 µM [inhibitor, partial curve, poor fit] |
| CC(C)(C)n1nnnc1CN1CCN(C(c2ccccc2)c2ccccc2)CC1 | inactive: -2.14% |  |
| COc1cccc(-c2nc(-c3ccccc3)nc(N3CCN(C)CC3)c2C#N)c1 | inactive: -35.3% |  |
| Cc1ccc2[nH]c(C(=O)N3CCCC(Nc4ccc(F)cc4)C3)cc2c1 (stereo not drawn) |  | inconclusive: 28.2 µM [inhibitor, single point] |
| CN(C)CCP(=O)(c1ccccc1)c1ccccc1 | inactive: 4.06% |  |
| COC1=C(c2ccccc2)C(=O)c2ccccc2C1=O |  | inconclusive: 37.7 µM [inhibitor, single point] |
| CCCOc1ccc(-c2nn(-c3ccccc3)cc2/C=C2\SC(N)=NC2=O)cc1C | inactive: 13.1% |  |
| Cc1ccc(S(=O)(=O)N(CC(=O)NCCc2ccc(Cl)cc2)c2ccccc2C)cc1 |  | inconclusive: 39.8 µM [inhibitor, single point] |
| COc1cccc(NC(=O)C2CCN(c3nnc(C)c4c(C)n(-c5ccccc5)nc34)CC2)c1 |  | inconclusive: 35.5 µM [inhibitor, partial curve, poor fit] |
| Cn1c(=O)n(CCc2ccccc2)c(=O)c2c1nc1n2CCN1Cc1ccco1 |  | inconclusive: 39.8 µM [inhibitor, partial curve, poor fit] |
| CC(C)OC(=O)c1c(NC(=O)c2ccco2)sc2c1CCCCC2 | inactive: 45.5% |  |
| Cc1c(NC(=O)c2cc(-c3cccc(O)c3)on2)c(=O)n(-c2ccccc2)n1C | inactive: 10.5% |  |
| COc1ccc(N2CCN(C(=O)C3CCN(S(=O)(=O)c4ccccc4)CC3)CC2)cc1 | inactive: -12.9% |  |
| COc1ccccc1NS(=O)(=O)c1cccc(C(=O)N/N=C/c2ccc([N+](=O)[O-])o2)c1 |  | inconclusive: 11.2 µM [inhibitor, partial curve, poor fit] |
| CCCn1c(=O)c(C(=O)NCc2ccccn2)c(O)c2ccccc21 | inactive: -3.45% |  |
| COc1ccc(CC(=O)Nc2ccc(-c3noc(-c4ccccc4OC)n3)cc2)cc1 |  | inconclusive: 39.8 µM [inhibitor, single point] |
| O=C1NCC(c2ccccc2)C1C(=O)N/N=C\c1ccc(-c2ccc(Cl)c(Cl)c2)o1 (stereo not drawn) |  | inconclusive: 28.2 µM [inhibitor, partial curve, poor fit] |
| CC1CC(C)CN(c2cc(=O)n(Cc3ccc(F)cc3)c(=O)[nH]2)C1 (stereo not drawn) |  | inconclusive: 1.89 µM [inhibitor, partial curve, poor fit] |
| COc1ccc(C(=O)O/N=C(\N)Cc2ccc([N+](=O)[O-])cc2)c(OC)c1 |  | inconclusive: 17.8 µM [inhibitor, partial curve, poor fit] |

| SMILES | activity change, negative = inhibition | Potency |
| --- | --- | --- |
| NNc1ccccc1C(F)(F)F | inactive: 55.1% |  |
| CCN(CC)S(=O)(=O)c1ccc2c(c1)C(=NO)c1cc(S(=O)(=O)N(CC)CC)ccc1-2 |  | inconclusive: 10 µM [inhibitor, partial curve, poor fit] |
| O=C1c2ccccc2-c2c1c1ccccc1c(=O)n2CCO |  | inconclusive: 16.8 µM [inhibitor, partial curve, poor fit] |
| O=C(Nc1ccccc1C(F)(F)F)c1ccc2oc(=O)c(S(=O)(=O)c3ccc(F)cc3)cc2c1 |  | inconclusive: 3.16 µM [inhibitor, partial curve, poor fit] |
| CC(C)c1ccc2oc(-c3ccc(NC(=O)c4cccc(Br)c4)cc3)nc2c1 | inactive: -28.8% |  |
| O=C(N/N=C1\CCc2ccccc21)c1ccccc1O |  | inconclusive: 12.6 µM [inhibitor, single point] |
| O=C(CCCc1ccccn1)c1ccccc1 |  | inconclusive: 17.8 µM [inhibitor, single point] |
| O=C(NNC(=O)c1cccnc1SCc1cccc([N+](=O)[O-])c1)c1ccc(F)cc1 |  | inconclusive: 39.8 µM [inhibitor, single point] |
| CCSc1cc(C)nc2c(-c3ccccc3)c(C)nn12 | inactive: 4.49% |  |
| O=C(c1ccc([N+](=O)[O-])cc1)N1CCN(Cc2ccccc2)CC1 | inactive: 2.69% |  |
| Cc1ccccc1NC(=S)N/N=C/c1ccc(O)cc1O |  | inconclusive: 28.2 µM [inhibitor, single point] |
| CSc1nn(Cc2cccc(C)c2)c(N)c1S(=O)(=O)c1ccccc1 |  | inconclusive: 35.5 µM [inhibitor, single point] |
| CCOC(=O)c1ccccc1NC(=O)COc1ccccc1-c1nnc(-c2ccccc2)o1 |  | inconclusive: 31.6 µM [inhibitor, single point] |
| Cc1c(C(=O)N2CCN(c3ccccn3)CC2)sc2ncnc(N3CCN(c4ccccc4)CC3)c12 | inactive: -8.94% |  |
| O=C(Nc1nc2ccccc2[nH]1)c1ccc(Cl)c(S(=O)(=O)N2CCCC2)c1 |  | inconclusive: 39.8 µM [inhibitor, single point] |
| CC1Cc2ccccc2N1C(=O)C1CCN(S(=O)(=O)c2cccs2)CC1 (stereo not drawn) | inactive: 3.95% |  |
| Cc1c(Br)cc(C(=O)NC2CCCCC2)c(C)c1C |  | inconclusive: 20 µM [inhibitor, partial curve, poor fit] |
| Cc1ccccc1N1CCN(S(=O)(=O)c2cccs2)CC1 | inactive: 0.385% |  |
| O=C(CSC(=S)N1CCCC1)c1cc(Br)cc(Br)c1O |  | inconclusive: 37.7 µM [inhibitor, single point] |
| Cc1ccsc1C(=O)N1CCC1(C)C(=O)NCC(C)(C)C (stereo not drawn) |  | inconclusive: 3.16 µM [inhibitor, partial curve, poor fit] |
| CCOc1ccccc1NC(=O)Nc1ccc(Cl)cc1 | inactive: 11.8% |  |
| CCOC(=O)CSc1nc2cc(C(=O)NCc3ccco3)ccc2c(=O)n1-c1ccc(F)cc1 |  | inconclusive: 10 µM [inhibitor, partial curve, poor fit] |
| Cc1cc(NC(=O)C2CCN(S(=O)(=O)c3cccc4nsnc34)CC2)ccc1Br | inactive: -17% |  |

| SMILES | activity change, negative = inhibition | Potency |
| --- | --- | --- |
| Cn1c(=N)n(CC(=O)c2ccccc2)c2ccccc21 |  | inconclusive: 11.2 µM [inhibitor, partial curve, poor fit] |
| Clc1ccc(CN2C3=NCCCN3c3ccccc32)cc1Cl |  | inconclusive: 10 µM [inhibitor, partial curve, poor fit] |
| O=C(Cc1c(Sc2ccccc2)c2ccccc2n1Cc1ccccc1)NCCO |  | inconclusive: 39.8 µM [inhibitor, partial curve, poor fit] |
| CCCN1CCN(c2ncnc3sc(C(=O)Nc4c(C)cc(C)cc4C)c(C)c23)CC1 | inactive: 4.62% |  |
| Fc1ccc(-c2n[nH]c(=S)c3ccccc23)cc1 | inactive: -36.9% |  |
| CCCCOC(=O)/C=C\C(=O)NC(N)=O |  | inconclusive: 35.5 µM [inhibitor, single point] |
| COc1cccc(S(=O)(=O)N(C)C[C@@H]2Oc3cc(C#CCN(C)C)ccc3S(=O)(=O)N([C@H](C)CO)C[C@@H]2C)c1 | inactive: -7.66% |  |
| COc1ccc(CC(N)c2csc(NC(=O)Nc3cccc(C(F)(F)F)c3)n2)cc1 (stereo not drawn) |  | inconclusive: 39.8 µM [inhibitor, single point] |
| COc1ccc(/C=C(\NC(=O)c2ccco2)C(=O)NC(Cc2ccccc2)C(=O)O)cc1 (stereo not drawn) | inactive: -3% |  |
| CCn1c2ccccc2c2cc(/C=N/NC(=O)c3ccccc3C)ccc21 |  | inconclusive: 5.62 µM [inhibitor, full curve, poor fit] |
| O=C(CCCN1C(=O)S/C(=C\c2ccccc2)C1=O)NNC(=O)c1ccccc1O |  | inconclusive: 7.94 µM [inhibitor, full curve, poor fit] |
| c1ccc(CCc2cccnc2)cc1 |  | inconclusive: 39.8 µM [inhibitor, partial curve, poor fit] |
| Cc1ccc(S(=O)(=O)C(CNC(=O)C(=O)NCc2ccccc2C)c2cccs2)cc1 (stereo not drawn) | inactive: -15.6% |  |
| CN1CCCC(CN2c3ccccc3Sc3ccccc32)C1 (stereo not drawn) |  | inconclusive: 39.8 µM [inhibitor, partial curve, poor fit] |
| Cc1ccn2c(CC(C)(C)C)c(-c3ccc(F)cc3)nc2c1 |  | inconclusive: 39.8 µM [inhibitor, single point] |
| Cc1cccc(N2C(=O)C(Oc3ccc(Cl)cc3Cl)C2C(=O)O)c1C (stereo not drawn) | inactive: -5.09% |  |
| O=C(/C(=C/O)N=Nc1ccccc1)c1cccs1 |  | inconclusive: 28.2 µM [inhibitor, single point] |
| Cc1nc(C(=O)NNC(=O)c2ccc(Cl)cc2)cs1 |  | inconclusive: 39.8 µM [inhibitor, single point] |
| Cc1ccc(Sc2nc(-c3ccccc3)nnc2C(F)(F)F)cc1 |  | inconclusive: 39.8 µM [inhibitor, single point] |
| COC(=O)c1c(NS(=O)(=O)c2ccc3ccccc3c2)sc2c1CCCC2 | inactive: -18.3% |  |
| CN(CC(=O)Nc1cccc(F)c1)C(=O)c1cccc(S(=O)(=O)N2CCN(c3ccc(F)cc3)CC2)c1 |  | inconclusive: 28.2 µM [inhibitor, partial curve] |
| S=C(NCCc1ccccc1)Nc1cccc2cnccc12 |  | inconclusive: 0.844 µM [inhibitor, partial curve, poor fit] |
